Data from the supplement of paper PMC4967469.
By IC50 is meant the dose at which the fit gives 50% viability; a fit beyond the top or the lowest dose is shown as a bound at that dose. The AUC spans the tested range (256-fold, ending at the top dose) of the same fit; values near 1 show little effect. For part of these data: Any top dose called inferred was calculated from the reported fits.

Tests used:
Assay in all cases: Viability of human cancer cell lines after 72 h of drug (GDSC screen)
QL-XI-92 = compound: C=CC(=O)Nc1cc(NC(=O)c2ccc(C)c(NC(=O)c3ccno3)c2)cc(C(F)(F)F)c1 [QL-XI-92]; conditions: top dose 10.24 µM; top dose inferred
Method: (§1)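 Human cancer cell lines in 384-well plates, medium with 10% serum, drug for 72 h over a 256-fold dose range (nine 2-fold or five 4-fold steps up to the top dose). Adherent lines were fixed and stained with the nucleic acid dye Syto60, suspension lines read with resazurin; signal relative to control wells, capped at 0 and 100%. One two-parameter sigmoid per drug and line, fitted in a mixed model over all curves with the slope shared within a line.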

Vinorelbine = compound: CCC1=C[C@@H]2CN(C1)Cc1c([nH]c3ccccc13)[C@@](C(=O)OC)(c1cc3c(cc1OC)N(C)[C@H]1[C@@](O)(C(=O)OC)[C@H](OC(C)=O)[C@]4(CC)C=CCN5CC[C@]31[C@@H]54)C2 [Vinorelbine]; conditions: top dose 0.064 µM; top dose inferred
Method: as §1

AG-014699 = compound: CNCc1ccc(-c2[nH]c3cc(F)cc4c3c2CCNC4=O)cc1 [AG-014699]; conditions: top dose 5 µM; top dose inferred
Method: as §1

XL-184 = compound: COc1cc2nccc(Oc3ccc(NC(=O)C4(C(=O)Nc5ccc(F)cc5)CC4)cc3)c2cc1OC [XL-184]; conditions: top dose 5.12 µM; top dose inferred
Method: as §1

WHI-P97 = compound: COc1cc2ncnc(Nc3cc(Br)c(O)c(Br)c3)c2cc1OC [WHI-P97]; conditions: top dose 10.24 µM; top dose inferred
Method: as §1

Gefitinib = compound: COc1cc2ncnc(Nc3ccc(F)c(Cl)c3)c2cc1OCCCN1CCOCC1 [Gefitinib]; conditions: top dose 0.5 µM
Method: as §1

Phenformin = compound: N=C(N)NC(=N)NCCc1ccccc1 [Phenformin]; conditions: top dose 4000 µM; top dose inferred
Method: as §1

EHT 1864 = compound: O=c1cc(CN2CCOCC2)occ1OCCCCCSc1ccnc2cc(C(F)(F)F)ccc12 [EHT 1864]; conditions: top dose 10 µM; top dose inferred
Method: as §1

NU-7441 = compound: O=c1cc(N2CCOCC2)oc2c(-c3cccc4c3sc3ccccc34)cccc12 [NU-7441]; conditions: top dose 2 µM; top dose inferred
Method: as §1

Cell Line	AUC (QL-XI-92)	IC50 (QL-XI-92) [µM]	AUC (Vinorelbine)	IC50 (Vinorelbine) [µM]	AUC (AG-014699)	IC50 (AG-014699) [µM]	AUC (XL-184)	IC50 (XL-184) [µM]	AUC (WHI-P97)	IC50 (WHI-P97) [µM]	AUC (Gefitinib)	IC50 (Gefitinib) [µM]	AUC (Phenformin)	IC50 (Phenformin) [µM]	AUC (EHT 1864)	IC50 (EHT 1864) [µM]	AUC (NU-7441)	IC50 (NU-7441) [µM]
KYM-1 (rhabdomyosarcoma, adherent)	0.975	> 10.2	0.68	0.0117	0.84	2.75	0.991	> 5.12	0.991	> 10.2	0.941	> 0.5	0.871	2860	0.941	> 10	0.954	> 2
KYSE-50 (oesophagus, adherent)	0.853	6.92	0.424	0.00253	0.99	> 5	0.829	2.82	0.964	> 10.2	0.919	> 0.5	0.735	1090	0.956	> 10	0.973	> 2
KYSE-140 (oesophagus, adherent)	0.901	> 10.2	0.718	0.0181	0.966	> 5	0.932	> 5.12	0.776	4.62	0.819	0.336	0.984	> 4000	0.97	> 10	0.957	> 2
KYSE-150 (oesophagus, adherent)	0.988	> 10.2	0.48	0.00354	0.957	> 5	0.962	> 5.12	0.966	> 10.2	0.98	> 0.5	0.842	2640	0.971	> 10	0.978	> 2
KYSE-220 (oesophagus, adherent)	0.962	> 10.2	0.551	0.00556	0.926	> 5	0.963	> 5.12	0.9	> 10.2	0.85	0.412	0.776	1690	0.937	> 10	0.979	> 2
KYSE-410 (oesophagus, adherent)	0.966	> 10.2	0.563	0.00601	0.985	> 5	0.974	> 5.12	0.98	> 10.2	0.894	> 0.5	0.697	935	0.934	> 10	0.935	> 2
KYSE-450 (oesophagus, adherent)	0.93	> 10.2	0.614	0.00807	0.973	> 5	0.776	1.93	0.8	4.62	0.819	0.264	0.51	265	0.985	> 10	0.934	> 2
KYSE-510 (oesophagus, adherent)	0.992	> 10.2	0.436	0.00277	0.968	> 5	0.986	> 5.12	0.988	> 10.2	0.944	> 0.5	0.599	445	0.983	> 10	0.967	> 2
KYSE-520 (oesophagus, adherent)	0.973	> 10.2	0.693	0.0169	0.954	> 5	0.89	> 5.12	0.954	> 10.2	0.936	> 0.5	0.635	670	0.967	> 10	0.973	> 2
LC-1-sq (lung squamous cell carcinoma, adherent)	0.977	> 10.2	0.947	> 0.064	0.974	> 5	0.958	> 5.12	0.982	> 10.2	0.865	> 0.5	0.799	2300	0.895	> 10	0.949	> 2
LCLC-103H (large cell lung carcinoma, adherent)	0.9	> 10.2	0.287	0.00107	0.923	> 5	0.939	> 5.12	0.958	> 10.2	0.991	> 0.5	0.709	912	0.967	> 10	0.99	> 2
LN-18 (glioma, adherent)	0.993	> 10.2	0.912	0.061	0.994	> 5	0.967	> 5.12	0.994	> 10.2	0.994	> 0.5	0.837	1980	0.979	> 10	0.957	> 2
LNZTA3WT4 (glioma, adherent)	0.983	> 10.2	0.798	0.0298	0.973	> 5	0.948	> 5.12	0.981	> 10.2	0.989	> 0.5	0.772	1520	0.98	> 10	0.989	> 2
LOU-NH91 (lung squamous cell carcinoma, adherent)	0.979	> 10.2	0.863	0.0635	0.986	> 5	0.966	> 5.12	0.938	> 10.2	0.881	> 0.5	0.828	2790	0.986	> 10	0.986	> 2
LS-180 (large intestine, adherent)	0.982	> 10.2	0.61	0.00839	0.984	> 5	0.957	> 5.12	0.982	> 10.2	0.963	> 0.5	0.941	> 4000	0.985	> 10	0.918	> 2
LU-135 (small cell lung carcinoma, suspension)	0.851	5.86	0.55	0.00533	0.932	> 5	0.891	4.17	0.991	> 10.2	0.988	> 0.5	0.97	> 4000	0.971	> 10	0.953	> 2
M059J (glioma, adherent)	0.86	9.84	0.685	0.0138	0.971	> 5	0.926	> 5.12	0.971	> 10.2	0.972	> 0.5	0.791	1960	0.983	> 10	0.976	> 2
MC-IXC (neuroblastoma, adherent)	0.92	8.09	0.437	0.00281	0.881	2.91	0.996	> 5.12	0.992	> 10.2	0.974	> 0.5	0.959	> 4000	0.939	9.51	0.994	> 2
MDA-MB-361 (breast, adherent)	0.976	> 10.2	0.632	0.00924	0.989	> 5	0.967	> 5.12	0.979	> 10.2	0.936	> 0.5	0.925	> 4000	0.943	> 10	0.972	> 2
ME-180 (cervix, adherent)	0.876	> 10.2	0.726	0.0181	0.959	> 5	0.868	5	0.923	> 10.2	0.915	> 0.5	0.852	3290	0.968	> 10	0.952	> 2
MEL-JUSO (melanoma, adherent)	0.937	> 10.2	0.523	0.00465	0.939	> 5	0.912	> 5.12	0.98	> 10.2	0.984	> 0.5	0.515	276	0.916	> 10	0.961	> 2
MES-SA (uterus, adherent)	0.987	> 10.2	0.438	0.00279	0.99	> 5	0.992	> 5.12	0.988	> 10.2	0.992	> 0.5	0.991	> 4000	0.984	> 10	0.979	> 2
MFE-280 (endometrium, adherent)	0.935	> 10.2	0.883	> 0.064	0.982	> 5	0.803	3.39	0.932	> 10.2	0.982	> 0.5	0.739	1480	0.982	> 10	0.966	> 2
MFE-296 (endometrium, adherent)	0.985	> 10.2	0.586	0.00701	0.985	> 5	0.946	> 5.12	0.976	> 10.2	0.977	> 0.5	0.955	> 4000	0.977	> 10	0.939	> 2
MG-63 (osteosarcoma, adherent)	0.984	> 10.2	0.486	0.00363	0.903	> 5	0.984	> 5.12	0.984	> 10.2	0.981	> 0.5	0.853	3940	0.908	> 10	0.897	> 2
MHH-ES-1 (Ewing sarcoma, adherent)	0.937	> 10.2	0.474	0.00341	0.586	0.537	0.885	> 5.12	0.897	> 10.2	0.986	> 0.5	0.861	3310	0.876	9.67	0.98	> 2
MIA-PaCa-2 (pancreas, adherent)	0.984	> 10.2	0.542	0.00527	0.971	> 5	0.985	> 5.12	0.984	> 10.2	0.985	> 0.5	0.81	2360	0.944	> 10	0.905	> 2
MKN28 (stomach, adherent)	0.976	> 10.2	0.471	0.00333	0.965	> 5	0.961	> 5.12	0.981	> 10.2	0.954	> 0.5	0.746	1290	0.929	> 10	0.97	> 2
MOG-G-CCM (glioma, adherent)	0.81	6.55	0.57	0.0064	0.983	> 5	0.864	> 5.12	0.968	> 10.2	0.964	> 0.5	0.571	403	0.979	> 10	0.958	> 2
